# From article PMC12136788
# The other results are listed elsewhere or left out.
# B1: ENSG00000070961:be:win_101|CDS|ENSG00000070961|bound_else_gene|NA|bound_elsewhere_windowed (ssRNA)
# RNA: GGGAGUUCUACAGUCCGACGAUCUGCGGGCUCUCAUGGAGCUCAGGUCCACAGAUGCAUUACGAAAAAUACAGGAAAGCUAUGGAGAUGUCUAUGGAAUUUGCACCAAAUUGAAAACAUCUCCCAAUGAAGGUUUAAGUGGAACAACAGAGGAUUGAGCAUCA
# B2: chr6:73641827:73641929:-|CDS|ENSG00000119899|unk|FALSE|unique (ssRNA)
# RNA: GGGAGUUCUACAGUCCGACGAUCGAGAAAAGAGCUGCUCUGUGAAGGUCUUAAAGGAUUGUUUUAUUCUUUUCUGAUUUUUGUAGGGUAAGAAGUACCAAUGGGAUGCAGAAACUCAAGGAUGGAUUCUCGGUUCCUUUUUUUCAACAGAGGAUUGAGCAUCA
# B3: chr1:183142599:183142700:+|CDS|ENSG00000135862|msi1|FALSE|unique (ssRNA)
# RNA: GGGAGUUCUACAGUCCGACGAUCAACGAGAUUGAAGGCACCCUAAACAAAGCCAAAGAUGAAAUGAAGGUCAGCGAUCUUGAUAGGAAAGUGUCUGACCUGGAGAAUGAAGCCAAGAAGCAGGAGGCUGCCAUCAUGGACUAUCAACAGAGGAUUGAGCAUCA
# B4: ENSG00000164609:stop:overlap|stop_codon|ENSG00000164609|stop_codon|NA|stop_codon (ssRNA)
# RNA: GGGAGUUCUACAGUCCGACGAUCAGGCAUAUAGAAUGAAACGUCAGAGGCCAGAUGACCCCAUGGCCUCUUUCCUUGGACAGUAGCAACUAGUCAGAAGACCAUCCAAGAUAGAUGCAGCUGAUACAUUCUUUUCAGCUUCUUCAACAGAGGAUUGAGCAUCA
# B5: chrX:47571900:47572933:-|three_prime_utr|ENSG00000008056|control|control|control (ssRNA)
# RNA: GGGAGUUCUACAGUCCGACGAUCAAACCUGACUCCUCCUGGCCCUAAAUCCGGUUCUCACAUGUGGAAUCCCCAAGUCCUUUUAGAACCCCACUCGUGGUCACUUCAGGAUCUACUUCUGUUUUAGAACCUCCACAUUCCUGACAACAGAGGAUUGAGCAUCA
# B6: chr1:203741488:203741589:+|3pUTR|ENSG00000058668|msi1|total|mutant (ssRNA)
# RNA: GGGAGUUCUACAGUCCGACGAUCGCCAGUUCAUGUCCCUGACUCUCACCUCCCAUCCGAUAAAUGAAGCCCACCCCCCUUUCCCGAGUGAUGAGAGUCAAGAAGAGGGGAUGUAUGAACGGCCAAAUUCCCAUGUGAGAGGAACAACAGAGGAUUGAGCAUCA
# B7: chr7:80742675:80742739:-|3pUTR|ENSG00000075223|msi1_unk|FALSE|overlapping (ssRNA)
# RNA: GGGAGUUCUACAGUCCGACGAUCGUAGCUUGACAAUUCAGUGACUUAAUAUCUAUUCCAUUUGUAUUGUACAUAAAAUUUUCUAGAAAUACACUUUUUUCCAAAGUGUAAGUUUGUGAAUAGAUUUUAGCAUGAUGAAACUGUCAACAGAGGAUUGAGCAUCA
# B8: ENSG00000198589:be:win_651|CDS|ENSG00000198589|bound_else_gene|NA|bound_elsewhere_windowed (ssRNA)
# RNA: GGGAGUUCUACAGUCCGACGAUCUGCAUUACCUCCUAUAGCCAAAUGGCCAUACCAGAAUGGUUUUACAUUUCAUACAUGGCUUAGAAUGGAUCCUGUAAAUAACAUCAAUGUAGAUAAGGAUAAACCAUAUUUGUAUUGUUUCAACAGAGGAUUGAGCAUCA
# B9: chr2:9584341:9584442:-|3pUTR|ENSG00000134308|msi1_unk|FALSE|overlapping (ssRNA)
# RNA: GGGAGUUCUACAGUCCGACGAUCUUUCCAUGCAGAUUUGUGCACAUGUGAGAGGGUGUCCAGUUUGUCUAGUGAUUGUUAUUUAGAGAGUUGGACCACUAUUGUGUGUUGCUAAUCAUUGACUGUAGUCCCAAAAAAGCCUUGCAACAGAGGAUUGAGCAUCA
# B10: chr22:20819776:20819877:-|CDS|ENSG00000241973|unk|total|mutant (ssRNA)
# RNA: GGGAGUUCUACAGUCCGACGAUCUGUAACGUUUUCACUUGAUCUUCCCGAAUACCUUUGCAAGUAUGCUAUCCCAUGCCUGACCGGAAUCUCGCGAGCAUUUGGGCGUUACAGCAACAUGGAAGAGUCUCUCCUCUCAAAGCUCAACAGAGGAUUGAGCAUCA
# B11: chr14:57493492:57493715:-|CDS|ENSG00000100557|control|control|control (ssRNA)
# RNA: GGGAGUUCUACAGUCCGACGAUCGAGUCACUCUAAGACUCACCUUAGGGUGAUCAAAGUAGCACCUUUGCAAAACAAAGAGGUAGAGACUCCCUCGGCUGGCCGUGUGGACUUUGCAUUCAAUCAGAAUUUGGAAGAAAAGACCAACAGAGGAUUGAGCAUCA
# B12: chrX:13662881:13662996:+|CDS|ENSG00000176896|unk|FALSE|unique (ssRNA)
# RNA: GGGAGUUCUACAGUCCGACGAUCUCGAAUUCUCUGUCUUCCCAAGACGUUGCAAAACUCAGUGAAAUGAUUGUGCCUGAAAAUAGAGCCAUUCAAUUGAAACCUAAGGAAGAGCAUUUUGGGGAUGGUGACCCUGAAUCCACUCAACAGAGGAUUGAGCAUCA
# B13: chr10:15076986:15077088:-|3pUTR|ENSG00000176244|unk|total|mutant (ssRNA)
# RNA: GGGAGUUCUACAGUCCGACGAUCUUUUCCUUUAAGAAGAUACCCAGCCGUGGGAUUGCUGGGCCGAAUGGCCGUUCUAUUUUCCGUUCCAUGAGAAAUUUCCGUGCUGUUUUUCACCGAGGUUGUACUAAUUUACAUUCCCACCAACAGAGGAUUGAGCAUCA
# B14: chr13:69700593:69701701:-|three_prime_utr|ENSG00000150361|control|control|control (ssRNA)
# RNA: GGGAGUUCUACAGUCCGACGAUCUUGAAUGGCAAGAAUGAGAACUUCCAGAGAUGAAAACUCUUCAAGAACAAGGAUCUCUGUAGCGUUACCUACUGAUGUUGAAAGAGUUAGUAGAUCAAACAGAAUAGUAGGAAACAAGAACAACAGAGGAUUGAGCAUCA
# B15: chr8:103442975:103443076:+|3pUTR|ENSG00000164934|msi1|FALSE|bound_elsewhere (ssRNA)
# RNA: GGGAGUUCUACAGUCCGACGAUCGGACUAGAUUAAUUGCAAACAUUUUAGUUAUAUGUGUAGAGCUUUAUUGUUACUCCUUUUAGCUACCCUGAAAAAUGAUCCUUAAAGGUGGCCUAGUUGGUAAGACUGUUUUAUCCUUAACAACAGAGGAUUGAGCAUCA
# B16: chr12:39369705:39369875:-|CDS|ENSG00000139116|unk|FALSE|unique (ssRNA)
# RNA: GGGAGUUCUACAGUCCGACGAUCGGGUAUUAUUUCUCGAGCUGUUAAACACCUUUUUAAGAGUAUUGAAGAAAAAAAACACAUAGCAAUUAAAAAUGGGCUUCCUGCUCCAGAUUUUAAAGUGAAUGCCCAAUUCUUAGAGGUCAACAGAGGAUUGAGCAUCA
# B17: chr2:105361111:105361195:-|3pUTR|ENSG00000115641|msi1_unk|total|mutant (ssRNA)
# RNA: GGGAGUUCUACAGUCCGACGAUCCUUUCUCACCCAGGCAAUCUUGCCUUCUGGUUUCUUCCAGCCACAUUGAGACUUUCUUCCCGUGCUUUUCAGUGAUACUCACGUUUGCUUAAACCCUUCCGUGCUUUGUGACCGUUCAGUCAACAGAGGAUUGAGCAUCA
# B18: chr1:6525536:6525637:-|3pUTR|ENSG00000162408|msi1|total|mutant (ssRNA)
# RNA: GGGAGUUCUACAGUCCGACGAUCACAGUUUGUGUGCCAUUAAAACAGAGAUUCCUCAGAAAGUUCUUCAGGGACCUGGUUAUCCGAAUCAGGAUAAAAAUAAGGAAACUGGGGCCAUUACAAUGUACCGAGAAGGAAGGAAGACAACAGAGGAUUGAGCAUCA
# B19: chr7:94910433:94910544:+|CDS|ENSG00000158528|unk|FALSE|bound_elsewhere (ssRNA)
# RNA: GGGAGUUCUACAGUCCGACGAUCCUGGAAAAAACAGAUGGCUCAGUUGUUAAGUUGGAGUCUUCUGUUUCUGAACGAAUUAGUAGAUUUGACACUAUGUACGAUGGCCCUUCAUAUUCCAAGUUCACUGAGACUCGAAAGAUGCAACAGAGGAUUGAGCAUCA
# B20: chr6:143501988:143502101:-|CDS|ENSG00000001036|unk|total|mutant (ssRNA)
# RNA: GGGAGUUCUACAGUCCGACGAUCUUCAUGUGGAGGAAAUCUUUUGAUGAAUAUUGGGCCCACACCCGAUGGCACCAUUUCUGCCGUUUUUGAGGAGCGACUGAGGCAAAUGGGGUCCUGGCUAAAAGUCAAUGGAGAAGCUAUCAACAGAGGAUUGAGCAUCA
# B21: chr9:33053202:33053303:-|CDS|ENSG00000122692|msi1|total|mutant (ssRNA)
# RNA: GGGAGUUCUACAGUCCGACGAUCCCUAAAACUUCCGAAAUUUUUAUACCUAAAAAAGGUUUAUAACUUAAAUUUCUGUGUGGCCGAUCUGGAAUAUGAAGACCACAGAAUGUUCAAAUACCUUUAAAUCCCUGGGCAGCACCGCAACAGAGGAUUGAGCAUCA
# B22: chr7:44064065:44064166:+|3pUTR|ENSG00000136279|msi1|FALSE|unique (ssRNA)
# RNA: GGGAGUUCUACAGUCCGACGAUCGCACACCCUUCUAGCCUUUCCAGGACUCAACAAGCUUUAAGGUCAUUCAGAUGCUAAUUUAGACUGCCCUUGUGUCAGAAUACUAAGGUGGGAGGCGGAGCGGAGGUGCCAGUCACUCUGCAACAGAGGAUUGAGCAUCA
# Biological target: MSI1 full-length (mouse, UniProt Q61474 1-362)
# UniProt Q61474, sequence (Q61474 whole entry): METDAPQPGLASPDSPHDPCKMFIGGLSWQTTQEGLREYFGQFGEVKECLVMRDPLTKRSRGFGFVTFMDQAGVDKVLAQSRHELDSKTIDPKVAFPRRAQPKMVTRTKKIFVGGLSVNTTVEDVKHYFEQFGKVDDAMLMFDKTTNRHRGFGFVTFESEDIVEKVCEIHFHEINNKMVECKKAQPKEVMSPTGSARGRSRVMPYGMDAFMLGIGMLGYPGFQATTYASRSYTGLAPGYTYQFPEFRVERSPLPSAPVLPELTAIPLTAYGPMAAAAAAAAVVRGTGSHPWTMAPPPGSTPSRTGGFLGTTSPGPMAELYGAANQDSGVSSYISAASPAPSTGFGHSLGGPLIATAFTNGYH
# Test: nsRBNS (natural sequence RNA bind-n-seq); RBNS binding buffer (assumed for nsRBNS): 25 mM Tris pH 7.5, 150 mM KCl, 3 mM MgCl2, 0.01% Triton X-100, 500 ug/ml BSA, 20 U/ml SUPERase-In, 4 C; UNK is unkempt and MSI1 is Musashi-1; names of the RNAs are library labels; protein concentration not given here; high values mean tight binding
row,Binder,binding signal [enrichment R]
1,B1,0.327
2,B2,0.359
3,B3,0.53
4,B4,0.347
5,B5,0.863
6,B6,0.579
7,B7,6.36
8,B8,1.07
9,B9,0.576
10,B10,0.3
11,B11,0.37
12,B12,0.249
13,B13,0.339
14,B14,4.13
15,B15,12.3
16,B16,4
17,B17,0.426
18,B18,0.386
19,B19,0.762
20,B20,0.472
21,B21,0.369
22,B22,0.56
